# Test results from US10100129B2, “Antibodies against CD73 and uses thereof” (BRISTOL-MYERS SQUIBB COMPANY, priority 2014, dated 2018).
# Columns and labels:
# [1] = SEC-MALS oligomeric state of CD73 mAbs; type: physicochemical
# Description: The oligomeric state of CD73 mAbs were examined by size-exclusion chromatography coupled to an in-line multi-angle light scattering detector (SEC-MALS). Isocratic separations were performed on a Shodex PROTEIN KW-803 column connected to an Prominence Shimadzu UFLC in buffer containing 200 mM K2HPO4, 150 mM NaCl, pH 6.8, containing 0.02% Na azide (0.1 μm filtered) running at 0.5 mL/min. Samples were injected onto the column using a SIL-20AC Prominence Shimadzu autosampler, and data were obtained from three online detectors connected in series: a Prominence SPD-20AD diode array UV/vis spectrophotometer followed by a Wyatt miniDAWN™ TREOS Multi-Angle Light Scattering Detector then a Wyatt Optilab T-rEX Refractive Index Detector. Data (as shown in Table 15 below) were collected and analyzed using Astra (Wyatt) and Labsolutions (Shimadzu) software.
# [2] = target: T1, CD73 on human cell lines (Homo sapiens, UniProt P21589); experiment: Kinetic internalization studies (high-content imaging); type: cell-based
# T1 construct: Calu6 (CD73 endogenous expressors; human pulmonary adenocarcinoma cell line); endogenous in cells; host or cells: Calu6, NCI-H292, SK-MEL-24, SNU-C1, NCI-H1437, H2228, HCC15, H2030 and further human tumour lines
# T1 sequence (P21589 27-549): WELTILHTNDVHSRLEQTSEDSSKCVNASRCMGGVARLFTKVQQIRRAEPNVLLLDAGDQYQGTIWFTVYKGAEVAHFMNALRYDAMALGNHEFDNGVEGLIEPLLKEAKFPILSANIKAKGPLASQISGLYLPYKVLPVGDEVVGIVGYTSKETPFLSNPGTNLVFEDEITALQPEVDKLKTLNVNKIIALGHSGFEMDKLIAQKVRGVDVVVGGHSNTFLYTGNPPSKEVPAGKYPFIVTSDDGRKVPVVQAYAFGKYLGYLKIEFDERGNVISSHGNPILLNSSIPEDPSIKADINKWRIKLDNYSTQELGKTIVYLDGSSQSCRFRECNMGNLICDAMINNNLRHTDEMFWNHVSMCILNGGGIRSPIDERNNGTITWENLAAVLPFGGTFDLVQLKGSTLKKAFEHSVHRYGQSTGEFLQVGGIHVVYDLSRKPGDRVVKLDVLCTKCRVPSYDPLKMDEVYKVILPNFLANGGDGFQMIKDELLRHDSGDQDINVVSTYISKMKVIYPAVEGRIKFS
# Description: Kinetic internalization studies were performed to assess the rate of internalization. Cells (2,000 cells/well) in 20 μl of complete medium (Gibco RPMI Media 1640 with 10% heat inactivated fetal bovine serum) were plated in 384 BD Falcon plate and grown overnight at 37° C. 5% CO2 and 95% humidity. CD73 antibodies were diluted with PBS buffer containing 0.2% BSA to 10 μg/ml and added 5 μl/well into the cell plate. The cells were incubated with antibodies for a 0-2 hour time course at 37° C., followed by washing once with PBS buffer. The cells were subsequently fixed with formaldehyde (final 4% in PBS) at room temperature for 10 minutes, and then washed once with 30 ul PBS. […] The plate was incubated at 4° C. for overnight. On the next day, after 3 washes in PBS buffer, Secondary antibody Alexa488-goat anti human with DAPI were added. The cells were stained for 60 minutes at room temperature, after 3 washes, images were acquired using Arrayscan Vti (Cellomics, Pittsburgh, Pa.).
# [3] = target: T2, N-hCD73-his (hCD73(26-336)His) (Homo sapiens, UniProt P21589); experiment: SPR (Biacore T100) kinetics of CD73 mAbs binding to N-hCD73-his; conditions: antibody captured on protein A, N-hCD73-his analyte, 25 C
# T2 construct: consisting of residues 26-336 of human CD73; termed N-hCD73; His (C); made in house; host or cells: HEK-293 E cells (transient transfection)
# T2 sequence (P21589 26-336): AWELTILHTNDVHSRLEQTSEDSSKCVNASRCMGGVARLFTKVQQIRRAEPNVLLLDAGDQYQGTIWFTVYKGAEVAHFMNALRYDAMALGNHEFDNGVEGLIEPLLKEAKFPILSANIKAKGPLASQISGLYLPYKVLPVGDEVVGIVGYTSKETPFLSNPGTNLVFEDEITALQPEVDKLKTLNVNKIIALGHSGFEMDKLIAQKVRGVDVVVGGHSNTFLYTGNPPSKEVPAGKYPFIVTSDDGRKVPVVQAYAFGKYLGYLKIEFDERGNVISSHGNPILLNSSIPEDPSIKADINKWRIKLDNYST
# Source text: One experimental format tested the binding of the N-terminal domain of hCD73 (consisting of residues 26-336 of human CD73; termed N-hCD73) to antibodies that were captured on immobilized protein A surfaces. For these experiments, protein A (Pierce) was immobilized to a density of 3000-4000 RU on flow cells 1-4 of a CM5 sensor chip (GE Healthcare) using standard ethyl(dimethylaminopropyl) carbodiimide (EDC)/N-hydroxysuccinimide (NHS) chemistry, with ethanolamine blocking, in a running buffer of 0.01 M HEPES pH 7.4, 0.15 M NaCl, 3 mM EDTA, 0.005% v/v tween 20. Kinetic experiments were performed by first capturing antibodies (5-10 ug/ml) on the protein A surfaces using a 30 s contact time at 10 ul/min, with binding of 600, 200, 66.7, 22.2, 7.4, and 2.5 nM N-hCD73-his, using a 180 s association time and 360 s dissociation time at a flow rate of 30 ul/min. The running buffer for the kinetic experiments was 10 mM sodium phosphate, 130 mM sodium chloride, 0.05% tween 20, pH 7.1. The surfaces were regenerated after each cycle using two 30 s pulses of 10 mM glycine pH 1.5 at a flow rate of 30 μl/min. Sensogram data was double-referenced and then fitted to a 1:1 Langmuir model using Biacore T100 evaluation software v2.0.4, to determine the association rate constant (ka), the dissociation rate constant (kd), and the equilibrium dissociation constant (KD). […]
molecule,measurement,setting,value
"5F8: human anti-CD73 monoclonal antibody, IgG1za; VH SEQ ID NO: 68; predominant light chain VK1 (antibody, Synthetic: 5F8 (full length heavy chain); Synthetic: 5F8 (full length light chain 1), human anti-CD73 monoclonal antibody, IgG1za; predominant light chain VK1) heavy: EVQLVESGGGLVQPGGSLRLSCAASGFTFSSYWMHWVRQAPGKGLVWVSRIISDGSSTGYADSVKGRFTISRDNAKNTLYLQMNSLRAEDTAVYYCAREFSSGWYFDYWGQGTLVTVSS[sequence of human IgG1 constant region omitted] light: AIQLTQSPSSLSASVGDRVTITCRASQGISSALAWYQQKPGKAPKLLIYDASSLESGVPSRFSGSGSGTDFTLTISSLQPEDFATYYCQQFSSYPRTFGQGTKVEIKRTVAAPSVFIFPPSDEQLKSGTASVVCLLNNFYPREAKVQWKVDNALQSGNSQESVTEQDSKDSTYSLSSTLTLSKADYEKHKVYACEVTHQGLSSPVTKSFNRGEC",SEC % HMW,[1],2.3%
same,SEC % LMW,[1],0.0%
same,SEC % Monomer,[1],97.7%
same,internalization (in words),[2],did not internalize significantly
same,kd,[3],0.006 s⁻¹
